Laboratory results from a compilation of properties of binary mixtures (doi:10.1016/j.jct.2021.106489).
Some of these densities may be calculated back from excess volumes.

Assay: xn = mol fraction of the nth substance listed
Conditions: 100 kPa

CCO + CC[n+]1ccn(C)c1.N#C[S-]
mass density (298.15 K, x2 = 0): 785.6 kg/m3
mass density (308.15 K, x2 = 0): 776.9 kg/m3

CC[n+]1ccn(C)c1.N#C[S-] + CCO
mass density (298.15 K, x1 = 0.0504): 832.7 kg/m3
mass density (298.15 K, x1 = 0.1005): 870.3 kg/m3
mass density (298.15 K, x1 = 0.2995): 973.5 kg/m3
mass density (298.15 K, x1 = 0.4984): 1034.4 kg/m3
mass density (298.15 K, x1 = 0.5989): 1056.6 kg/m3
mass density (298.15 K, x1 = 0.699): 1074.8 kg/m3
mass density (298.15 K, x1 = 0.7966): 1089.7 kg/m3
mass density (298.15 K, x1 = 0.8998): 1103.3 kg/m3
mass density (298.15 K, x1 = 1): 1114 kg/m3
mass density (303.15 K, x1 = 0.0504): 828.5 kg/m3
mass density (303.15 K, x1 = 0.1005): 866.4 kg/m3
mass density (303.15 K, x1 = 0.2011): 926.3 kg/m3
mass density (303.15 K, x1 = 0.2995): 969.8 kg/m3
mass density (303.15 K, x1 = 0.3991): 1004.1 kg/m3
mass density (303.15 K, x1 = 0.4984): 1031.1 kg/m3
mass density (303.15 K, x1 = 0.699): 1071.4 kg/m3
mass density (303.15 K, x1 = 0.7966): 1086.5 kg/m3
mass density (303.15 K, x1 = 0.8998): 1100 kg/m3
mass density (303.15 K, x1 = 0.949): 1105.4 kg/m3
mass density (303.15 K, x1 = 1): 1110.7 kg/m3
mass density (308.15 K, x1 = 0.0504): 824.2 kg/m3
mass density (308.15 K, x1 = 0.1005): 862.4 kg/m3
mass density (308.15 K, x1 = 0.2995): 966.1 kg/m3
mass density (308.15 K, x1 = 0.3991): 1000.7 kg/m3
mass density (308.15 K, x1 = 0.4984): 1027.7 kg/m3
mass density (308.15 K, x1 = 0.5989): 1050 kg/m3
mass density (308.15 K, x1 = 0.699): 1068.4 kg/m3
mass density (308.15 K, x1 = 0.7966): 1083.2 kg/m3
mass density (308.15 K, x1 = 0.8998): 1096.8 kg/m3
mass density (308.15 K, x1 = 0.949): 1102.3 kg/m3
mass density (308.15 K, x1 = 1): 1107.5 kg/m3
